# The source gives no read counts; variants with many changes may rest on few reads.
# B1: CPEB3 Ribozyme (parent)
# chain: UAACAGGGGGCCACAGCAGAAGCGUUCACGUCGCAGCCCCUGUCAGAUUCUGGUGAAUCUGCGAAUUCUGCUGUAUAUCUC
# Variants of: B1
# Assay: self-cleavage, relative activity (ratio to wild type); higher = more cleavage; in vitro, sequencing
# Method in brief: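 After error-prone PCR and barcoding, CPEB3 ribozyme mutant libraries were transcribed with T7 RNA polymerase at 37°C for 5 hours, then given 15 min with DNase I before an EDTA stop, and they cleaved during both steps. Reverse transcription with template switching preceded Illumina sequencing. Relative activity divides a variant's cleaved/total read fraction by the unmutated ribozyme's. At least 5 reads were required per variant, and three batches were averaged.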
row,Variant,self-cleavage
1,A15G U25C U60C C62U,0.19
2,A15G U25C U66C U69A,0.14
3,A15G U25C U67C A77U,0.18
4,A15G U25C U69A,0.24
5,A15G U25G A28G U43A U80C,0.14
6,A15G U25G U26A U48C,0.06
7,A15G U25G U60C A64U U80C,0.12
8,A15G U26A A28G C44U A57U U67A,0.02
9,A15G U26A A57G,0.56
10,A15G U26A C32U A45U U51A U72A U80C,0.06
11,A15G U26A G63A,0.38
12,A15G U26A U31C G46U,0.03
13,A15G U26A U41C U48C,0.29
14,A15G U26A U41C U54C A56U U58A A65G,0.04
15,A15G U26A U41C U69A A77G,0.13
16,A15G U26A U43C U49C U72C,0.11
17,A15G U26A U51A A56G,0.38
18,A15G U26A U51C,0.87
19,A15G U26A U54A A56G A75G,0.26
20,A15G U26C A28G U58A U74A A75U U76C,0.07
21,A15G U26C A28G U76C,0.15
22,A15G U26C A28U A35U U76A,0.31
23,A15G U26C A28U U54A A56U A64G,0.17
24,A15G U26C A35U U43C,0.25

row,Variant,self-cleavage
1,A15G U26C A45C A57G U67C A75G,0.07
2,A15G U26C A45U U48C U72C,0.2
3,A15G U26C A45U U51A A65U,0.17
4,A15G U26C A45U U60A U67C,0.06
5,A15G U26C A56G A57C A65G,0.09
6,A15G U26C A56U,0.22
7,A15G U26C A57C U72A,0.13
8,A15G U26C A65G U67C G70A,0.09
9,A15G U26C A75U,0.56
10,A15G U26C C29U C62G,0.11
11,A15G U26C C32A U58C U74C,0.07
12,A15G U26C C32U U72A U78G,0.04
13,A15G U26C C38A U74A,0.36
14,A15G U26C C39U,0.35
15,A15G U26C U31A G52A U58C,0.07
16,A15G U26C U31C U49A U66A U72C U76A,0.17
17,A15G U26C U43A U49C U51C A56G U76C,0.1
18,A15G U26C U48A U49A U66C U78C,0.06
19,A15G U26C U54C U69C U72C U76C,0.08
20,A15G U26C U58C,0.18
21,A15G U26C U60C U66C U74C U80C,0.07
22,A15G U26C U74A,0.51
23,A15G U26C U76C,0.31
24,A15G U26G U31C G33A U41C A45U,0.09

row,Variant,self-cleavage
1,A15G U26G U54A,0.49
2,A15G U31A A35C U72A,0.14
3,A15G U31A A47G G55A A57G A64G A75G,0.06
4,A15G U31A A57G U72C,0.75
5,A15G U31A C39A,0.2
6,A15G U31A G33A,0.19
7,A15G U31A U41C A45G U48C A64U U72A,0.11
8,A15G U31A U43A G55A G63A A75G,0.3
9,A15G U31A U43C,0.44
10,A15G U31A U43C A64G U78C,0.09
11,A15G U31A U43C U72A A75U,0.25
12,A15G U31A U43C U74A,0.44
13,A15G U31A U60C U72A,0.15
14,A15G U31A U72C,0.87
15,A15G U31C A47G U54C U66A,0.4
16,A15G U31C C34U U80C,0.63
17,A15G U31C C38A C44G C50A U60G,0.07
18,A15G U31C C38G U69C A75G,0.39
19,A15G U31C G33A C37U,0.25
20,A15G U31C G46A A64U,0.2
21,A15G U31C G63C,0.5
22,A15G U31C U43C A45U,0.13
23,A15G U31C U43C A57G,0.06
24,A15G U31C U48C U78C,0.15

row,Variant,self-cleavage
1,A15G U31C U54A A64G U72A,0.1
2,A15G U31C U76C,0.31
3,A15G U31G G33A A45U U60A,0.12
4,A15G U31G U51C U72A,0.45
5,A15G U41A A47G,0.36
6,A15G U41A A47G U72C,0.42
7,A15G U41A A56G,0.25
8,A15G U41A A56G A57G,0.14
9,A15G U41A A56U U60A U80C,0.09
10,A15G U41A A64G,0.21
11,A15G U41A A64G U80A,0.15
12,A15G U41A U49C U78A,0.04
13,A15G U41A U54A,0.13
14,A15G U41C A47G A75G,0.87
15,A15G U41C A56U U60C,0.07
16,A15G U41C A65G,0.33
17,A15G U41C C71U,0.29
18,A15G U41C G53A A64U,0.21
19,A15G U41C U43A U67C U72A A77G,0.14
20,A15G U41C U43C A47U,0.07
21,A15G U41C U48C A65G U67C,0.1
22,A15G U41C U49C U72A,0.19
23,A15G U41C U58C G70A,0.14
24,A15G U41C U66C U69C,0.27

row,Variant,self-cleavage
1,A15G U41C U66C U78C,0.27
2,A15G U41C U67C U69C,0.4
3,A15G U41C U67G,0.26
4,A15G U41G A45U A56C U69A,0.07
5,A15G U43A A47U A65G,0.19
6,A15G U43A G55C,0.88
7,A15G U43A U48C,0.29
8,A15G U43A U48C U49A U69C U76C,0.35
9,A15G U43A U54C A64G,0.33
10,A15G U43A U54C A65G,0.24
11,A15G U43C A56G U69C U78C,0.15
12,A15G U43C A56U U67A U74A,0.13
13,A15G U43C A65U,0.1
14,A15G U43C C81A,0.8
15,A15G U43C G53U C71A,0.15
16,A15G U43C G55U,0.21
17,A15G U43C G63U U76C A77G,0.9
18,A15G U43C U51A,0.32
19,A15G U43C U51C C62A C81A,0.09
20,A15G U43C U54G U58C U74C U80C,0.61
21,A15G U43C U58A U78C,0.07
22,A15G U43C U69C,0.32
23,A15G U43C U72A U76A,0.2
24,A15G U43C U78A,0.62

row,Variant,self-cleavage
1,A15G U48C A57G,0.98
2,A15G U48C C50U,0.19
3,A15G U48C C59A,0.13
4,A15G U48C C62A,0.25
5,A15G U48C U54C A57G,0.98
6,A15G U48C U60A,0.19
7,A15G U48C U72A A77U,0.25
8,A15G U48G A64G,0.28
9,A15G U49A A64G C81U,0.32
10,A15G U49A A64G U67G,0.19
11,A15G U49C A56G,1
12,A15G U49C A56U C62U U72C C79U,0.03
13,A15G U49C A64G A77G,0.05
14,A15G U49C A64U,0.1
15,A15G U49C U51A A56G U72C,1.21
16,A15G U49C U60C,0.17
17,A15G U49C U80C,0.35
18,A15G U51A G53A A57G,0.64
19,A15G U51A U72A,0.55
20,A15G U51A U80C,1.19
21,A15G U51C A56G U76C,0.47
22,A15G U51C A75G,0.67
23,A15G U51C U54A A57G A77G,0.81
24,A15G U51C U54C U60C,0.27

row,Variant,self-cleavage
1,A15G U51C U58C A75U,0.43
2,A15G U51C U67C U80A,0.33
3,A15G U54A G55C U74C,0.44
4,A15G U54A U67A G70A,0.26
5,A15G U54A U67C,0.23
6,A15G U54A U67C U74C U80C,0.13
7,A15G U54C A56G U58C,0.12
8,A15G U54C C62U,0.17
9,A15G U54C U69A U78C,0.22
10,A15G U58C U67C,0.22
11,A15G U58C U72A,0.18
12,A15G U58C U78C,0.41
13,A15G U58G A65G U69C,0.23
14,A15G U60A U67G U72A,0.16
15,A15G U60C A64G A75U,0.27
16,A15G U60C A77G,0.2
17,A15G U60C C62G U67A,0.15
18,A15G U60C U67A,0.26
19,A15G U60C U67C,0.13
20,A15G U60C U74C,0.47
21,A15G U60G U74C,0.35
22,A15G U66A U67C,0.26
23,A15G U66A U72C U78C,0.53
